These are yes or no findings as the source states them, for the method shown. In cells and extracts the contact can be indirect. Some binding calls cover weakened binding; strength is not graded here. For some of these results: Where a sequence is shown, tags or fusion partners need not be part of it.
T1: GST-Yra1 (UniProt Q12159)
T1 sequence: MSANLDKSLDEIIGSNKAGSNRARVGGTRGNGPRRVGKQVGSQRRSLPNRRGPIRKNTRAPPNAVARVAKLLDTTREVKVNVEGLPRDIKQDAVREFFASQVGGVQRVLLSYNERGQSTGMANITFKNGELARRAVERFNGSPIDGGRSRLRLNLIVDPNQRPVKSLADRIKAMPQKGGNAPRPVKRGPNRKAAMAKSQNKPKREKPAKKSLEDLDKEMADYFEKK

Amino acid sequences for entries named in this document (tags omitted).
UniProt P39081: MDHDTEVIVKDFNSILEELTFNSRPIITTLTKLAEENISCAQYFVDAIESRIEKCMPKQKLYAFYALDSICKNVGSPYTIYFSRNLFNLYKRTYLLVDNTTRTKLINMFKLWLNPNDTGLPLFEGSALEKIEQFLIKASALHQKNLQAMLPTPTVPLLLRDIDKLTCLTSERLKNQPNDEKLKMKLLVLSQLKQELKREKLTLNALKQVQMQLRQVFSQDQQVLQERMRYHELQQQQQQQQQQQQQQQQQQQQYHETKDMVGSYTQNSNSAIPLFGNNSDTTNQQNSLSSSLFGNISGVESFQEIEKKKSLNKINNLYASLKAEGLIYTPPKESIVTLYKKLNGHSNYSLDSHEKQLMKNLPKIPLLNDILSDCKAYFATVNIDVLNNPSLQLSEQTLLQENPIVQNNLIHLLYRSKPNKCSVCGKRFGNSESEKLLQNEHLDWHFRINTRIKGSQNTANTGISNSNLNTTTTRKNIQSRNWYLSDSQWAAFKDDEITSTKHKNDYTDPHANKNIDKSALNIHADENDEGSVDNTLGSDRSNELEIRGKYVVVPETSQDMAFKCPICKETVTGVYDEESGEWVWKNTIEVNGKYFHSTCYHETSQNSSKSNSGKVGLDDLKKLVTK

T2: GST-Ysh1 (yeast) (UniProt Q06224)
T2 sequence: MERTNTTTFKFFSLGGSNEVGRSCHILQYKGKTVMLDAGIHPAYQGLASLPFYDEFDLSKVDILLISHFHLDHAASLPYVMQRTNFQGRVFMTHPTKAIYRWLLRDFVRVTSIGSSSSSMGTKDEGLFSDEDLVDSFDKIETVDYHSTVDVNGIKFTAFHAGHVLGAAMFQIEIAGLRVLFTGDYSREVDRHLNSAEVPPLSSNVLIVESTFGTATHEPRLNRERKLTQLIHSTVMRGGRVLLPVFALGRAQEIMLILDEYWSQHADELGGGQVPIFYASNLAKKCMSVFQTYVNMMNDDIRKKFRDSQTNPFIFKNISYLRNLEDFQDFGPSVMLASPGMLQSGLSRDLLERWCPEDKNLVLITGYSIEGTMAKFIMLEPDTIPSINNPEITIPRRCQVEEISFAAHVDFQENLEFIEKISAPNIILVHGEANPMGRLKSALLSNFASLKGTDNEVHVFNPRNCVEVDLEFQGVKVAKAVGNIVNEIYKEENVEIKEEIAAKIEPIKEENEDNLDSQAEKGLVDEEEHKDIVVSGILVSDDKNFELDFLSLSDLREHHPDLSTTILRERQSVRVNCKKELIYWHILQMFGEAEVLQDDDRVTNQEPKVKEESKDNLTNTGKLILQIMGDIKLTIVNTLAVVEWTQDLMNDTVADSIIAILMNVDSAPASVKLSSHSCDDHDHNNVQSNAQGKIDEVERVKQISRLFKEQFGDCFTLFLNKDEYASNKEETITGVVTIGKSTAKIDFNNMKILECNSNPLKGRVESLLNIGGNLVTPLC

T3: GST-Rna14 (yeast) (UniProt P25298)
T3 sequence: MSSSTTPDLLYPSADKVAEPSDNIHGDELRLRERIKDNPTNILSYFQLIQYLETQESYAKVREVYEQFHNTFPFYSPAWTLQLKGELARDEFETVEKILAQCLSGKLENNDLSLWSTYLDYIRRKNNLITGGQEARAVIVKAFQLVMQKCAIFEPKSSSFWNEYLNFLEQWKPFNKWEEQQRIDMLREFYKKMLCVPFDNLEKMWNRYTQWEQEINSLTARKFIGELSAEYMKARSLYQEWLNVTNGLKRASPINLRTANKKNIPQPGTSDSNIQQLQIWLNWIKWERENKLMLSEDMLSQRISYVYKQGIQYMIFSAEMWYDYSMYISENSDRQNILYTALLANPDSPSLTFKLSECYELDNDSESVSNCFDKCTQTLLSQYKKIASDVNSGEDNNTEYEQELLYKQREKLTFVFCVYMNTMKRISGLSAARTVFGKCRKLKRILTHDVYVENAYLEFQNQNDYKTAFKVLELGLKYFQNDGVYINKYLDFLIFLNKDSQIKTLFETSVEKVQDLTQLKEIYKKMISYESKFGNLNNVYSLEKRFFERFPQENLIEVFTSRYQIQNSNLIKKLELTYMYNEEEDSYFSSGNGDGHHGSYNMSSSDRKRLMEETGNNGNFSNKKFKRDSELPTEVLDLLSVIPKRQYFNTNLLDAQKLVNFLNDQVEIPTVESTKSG

T4: GST-Rna15 (yeast) (UniProt P25299)
T4 sequence: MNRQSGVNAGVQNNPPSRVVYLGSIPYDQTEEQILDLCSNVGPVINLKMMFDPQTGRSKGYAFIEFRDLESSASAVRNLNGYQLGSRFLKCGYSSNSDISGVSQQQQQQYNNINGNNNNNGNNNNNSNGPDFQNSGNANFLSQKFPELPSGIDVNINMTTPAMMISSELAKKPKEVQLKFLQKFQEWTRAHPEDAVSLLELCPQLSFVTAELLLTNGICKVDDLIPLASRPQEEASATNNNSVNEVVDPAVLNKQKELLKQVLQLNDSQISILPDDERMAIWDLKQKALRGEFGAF


Experiments:
GST-Yra1 = biological target: T1, GST-Yra1; assay: pull-down; GST-fusion protein (100 ng) incubated with in vitro translated [35S]-methionine-labelled protein for 1 h at room temperature; bound in 860 µl to glutathione sepharose equilibrated in PBS, 0.01% NP-40, 100 µg BSA; washed three times with IPP150 (20 mM Tris-HCl pH 8.0, 150 mM KCl, 0.01% NP-40); SDS-PAGE, autoradiography (Fig. 2B, 2C); only the target purified
GST-Pcf11 (yeast) = GST-Pcf11 (yeast) (UniProt P39081); assay: as above
GST-Ysh1 (yeast) [1] = biological target: T2, GST-Ysh1 (yeast); assay: as above
GST-Rna14 (yeast) = biological target: T3, GST-Rna14 (yeast); assay: as above
GST-Ysh1 (yeast) [2] = biological target: T2, GST-Ysh1 (yeast); assay: pull-down; GST-Ysh1 with in vitro translated [35S]-labelled proteins; all binding reactions contained labelled Pta1 and increasing concentrations of wild-type or mutant Clp1 (Fig. 2D); only the target purified
GST-Rna15 (yeast) = biological target: T4, GST-Rna15 (yeast); assay: pull-down; GST-fusion protein (100 ng) incubated with in vitro translated [35S]-methionine-labelled protein for 1 h at room temperature; bound in 860 µl to glutathione sepharose equilibrated in PBS, 0.01% NP-40, 100 µg BSA; washed three times with IPP150 (20 mM Tris-HCl pH 8.0, 150 mM KCl, 0.01% NP-40); SDS-PAGE, autoradiography (Fig. 2B, 2C); only the target purified

binding (GST-Ysh1 (yeast) [1])	binding (GST-Rna14 (yeast))	binding (GST-Ysh1 (yeast) [2])	Binder	binding (GST-Yra1)	binding (GST-Pcf11 (yeast))	binding (GST-Rna15 (yeast))
binds	binds weakly	binds weakly	Clp1, full-length wild-type, in vitro translated (protein, UniProt Q08685 1-445, [35S]-methionine-labelled) MASLPGIDEHTTSEELITGDNEWHKLVIPKGSDWQIDLKAEGKLIVKVNSGIVEIFGTELAVDDEYTFQNWKFPIYAVEETELLWKCPDLTTNTITVKPNHTMKYIYNLHFMLEKIRMSNFEGPRVVIVGGSQTGKTSLSRTLCSYALKFNAYQPLYINLDPQQPIFTVPGCISATPISDILDAQLPTWGQSLTSGATLLHNKQPMVKNFGLERINENKDLYLECISQLGQVVGQRLHLDPQVRRSGCIVDTPSISQLDENLAELHHIIEKLNVNIMLVLCSETDPLWEKVKKTFGPELGNNNIFFIPKLDGVSAVDDVYKRSLQRTSIREYFYGSLDTALSPYAIGVDYEDLTIWKPSNVFDNEVGRVELFPVTITPSNLQHAIIAITFAERRADQATVIKSPILGFALITEVNEKRRKLRVLLPVPGRLPSKAMILTSYRYLE	no binding (tested: 100 ng GST-fusion protein in 860 µl)	binds	
binds	binds weakly		Clp1 T137A, full length, in vitro translated (protein, UniProt Q08685 1-445, [35S]-methionine-labelled) MASLPGIDEHTTSEELITGDNEWHKLVIPKGSDWQIDLKAEGKLIVKVNSGIVEIFGTELAVDDEYTFQNWKFPIYAVEETELLWKCPDLTTNTITVKPNHTMKYIYNLHFMLEKIRMSNFEGPRVVIVGGSQTGKASLSRTLCSYALKFNAYQPLYINLDPQQPIFTVPGCISATPISDILDAQLPTWGQSLTSGATLLHNKQPMVKNFGLERINENKDLYLECISQLGQVVGQRLHLDPQVRRSGCIVDTPSISQLDENLAELHHIIEKLNVNIMLVLCSETDPLWEKVKKTFGPELGNNNIFFIPKLDGVSAVDDVYKRSLQRTSIREYFYGSLDTALSPYAIGVDYEDLTIWKPSNVFDNEVGRVELFPVTITPSNLQHAIIAITFAERRADQATVIKSPILGFALITEVNEKRRKLRVLLPVPGRLPSKAMILTSYRYLE	no binding (tested: 100 ng GST-fusion protein in 860 µl)	no binding (tested: 100 ng GST-fusion protein in 860 µl)	no binding (tested: 100 ng GST-fusion protein in 860 µl)
binds	binds weakly	binds	Clp1 D161A, full length, in vitro translated (protein, UniProt Q08685 1-445, [35S]-methionine-labelled) MASLPGIDEHTTSEELITGDNEWHKLVIPKGSDWQIDLKAEGKLIVKVNSGIVEIFGTELAVDDEYTFQNWKFPIYAVEETELLWKCPDLTTNTITVKPNHTMKYIYNLHFMLEKIRMSNFEGPRVVIVGGSQTGKTSLSRTLCSYALKFNAYQPLYINLAPQQPIFTVPGCISATPISDILDAQLPTWGQSLTSGATLLHNKQPMVKNFGLERINENKDLYLECISQLGQVVGQRLHLDPQVRRSGCIVDTPSISQLDENLAELHHIIEKLNVNIMLVLCSETDPLWEKVKKTFGPELGNNNIFFIPKLDGVSAVDDVYKRSLQRTSIREYFYGSLDTALSPYAIGVDYEDLTIWKPSNVFDNEVGRVELFPVTITPSNLQHAIIAITFAERRADQATVIKSPILGFALITEVNEKRRKLRVLLPVPGRLPSKAMILTSYRYLE	no binding (tested: 100 ng GST-fusion protein in 860 µl)		no binding (tested: 100 ng GST-fusion protein in 860 µl)
binds	binds weakly	binds	Clp1 K136A T137A, full length, in vitro translated (protein, UniProt Q08685 1-445, [35S]-methionine-labelled) MASLPGIDEHTTSEELITGDNEWHKLVIPKGSDWQIDLKAEGKLIVKVNSGIVEIFGTELAVDDEYTFQNWKFPIYAVEETELLWKCPDLTTNTITVKPNHTMKYIYNLHFMLEKIRMSNFEGPRVVIVGGSQTGAASLSRTLCSYALKFNAYQPLYINLDPQQPIFTVPGCISATPISDILDAQLPTWGQSLTSGATLLHNKQPMVKNFGLERINENKDLYLECISQLGQVVGQRLHLDPQVRRSGCIVDTPSISQLDENLAELHHIIEKLNVNIMLVLCSETDPLWEKVKKTFGPELGNNNIFFIPKLDGVSAVDDVYKRSLQRTSIREYFYGSLDTALSPYAIGVDYEDLTIWKPSNVFDNEVGRVELFPVTITPSNLQHAIIAITFAERRADQATVIKSPILGFALITEVNEKRRKLRVLLPVPGRLPSKAMILTSYRYLE	no binding (tested: 100 ng GST-fusion protein in 860 µl)		

Source: PMC3245249
